These results are taken from the supplement of paper PMC10126150.

Sequences with one replicate were seen in a single cluster, so their values are uncertain.

The subject of this data set is ATP. The data set is described as follows: switch fluorescence ratio, 500 uM ATP over buffer (Cy3 cluster intensity, sum of 5 cycles each) (fold (ratio)); higher = stronger signal-on switching upon ATP binding; sequences stand for … in TCGTCGGCAGCGTCAGATGTGTATAAGAGACAGTTTTTTTTTTTTTTTTTTTTTTTTT…TC. The note with it: aptamer strand: ATP DNA aptamer (quencher-CACCTGGGGGAGTATTGCGGAGGAAGG + anchor), 100 nM annealed; ATP concentration: 500 uM; one replicate. The procedure, abridged: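 Per cluster, summed Cy3 intensity from the target cycles was divided by that from the buffer cycles to give the fluorescence ratio, then averaged per switch-domain sequence. Clusters outside 100-1000 RFU were excluded. The Cy3-labelled switching-strand clusters, on a modified Illumina MiSeq flow-cell, were annealed to 100 nM quencher-labelled ATP aptamer and imaged in selection buffer, then after 15 min with 500 uM ATP at 22 °C, for five cycles with NaOH stripping and re-annealing between them.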
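Also: ATP exposure 15 min at 22 °C before imaging.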

Regarding TCTCAGAGAG, the switch fluorescence ratio is 1.03.
Consider TCTCCCGGAT, for which the switch fluorescence ratio stood at 1.08.
In the case of AGATCGACCT it was 1.21; in that of ATGTTACTCG, 1.04.
With TGCGGAGTAG, the switch fluorescence ratio came out at 1.
For the sequence ATGGTAATAG, the switch fluorescence ratio worked out at 1.03.
Consider GTATTGTAGC, for which the switch fluorescence ratio turned out to be 1.05.
For TATCTCAGTC, the switch fluorescence ratio came out at 0.957.
The result for CCAGATTTGG reads 1.02; that for CCACGAGCCC, 1.39.
For the sequence ATTCGGTGGC, the switch fluorescence ratio came to 1.
Regarding TGGATGTTGG, the switch fluorescence ratio stood at 0.995.
Regarding TAGTTGACAT, the switch fluorescence ratio was 1.03.
On to TGATACCCA, for which the switch fluorescence ratio is 1.04.
Consider AGTCAGTGCC, for which the switch fluorescence ratio was found to be 1.04.
For CTGTTTTCGG, the switch fluorescence ratio is 0.991.
As for AACGGATGCT, the switch fluorescence ratio came out at 0.988.
The result for TCTTCCGATT reads 1.21.
Regarding TTCTGATTGG, the switch fluorescence ratio was found to be 0.978.
Consider ACTACCTAGA, for which the switch fluorescence ratio was found to be 1.09.
As for CCTATGCCCC, the switch fluorescence ratio is 1.12.
Turning to AACGTCGAAT, the switch fluorescence ratio turned out to be 1.
Take TTTTAGAGTC: the switch fluorescence ratio is 1.02.
The result for TTAATTATCC reads 0.989.
On to ATATCTGGT, for which the switch fluorescence ratio was determined as 0.944.
Turning to ATTTAGTGAA, the switch fluorescence ratio came out at 0.992.
As to GGCATTGATG, the switch fluorescence ratio was found to be 0.998.
For the sequence GAGCGTTACT, the switch fluorescence ratio is 1.48.
For the sequence GTATGAGTAA, the switch fluorescence ratio came out at 0.998.
In the case of TATCTATAGG it was 1; in that of ATCCTGCTCC, 1.15.
As for ACATGGGCAT, the switch fluorescence ratio worked out at 0.965.
On to TCTCAATCAG, for which the switch fluorescence ratio was 0.988.
The result for TAGGCATACT reads 3.11; that for CCGATGGCAG, 4.39.
For the sequence AATGGGG, the switch fluorescence ratio stood at 1.02.
Consider CCATGGATAG, for which the switch fluorescence ratio was 1.02.
On to CCGATTCAAA, for which the switch fluorescence ratio worked out at 1.95.
Take CACAACTT: the switch fluorescence ratio was 1.05.
Consider GGGATTCGC, for which the switch fluorescence ratio is 1.03.
In the case of CGAGCTGGAG it was 1.04; in that of AAACTTAACA, 1.16.
In the case of GTCGGTGCTT it was 0.981; in that of GGGGAGCCAG, 0.995; in that of CGGCACAATC, 2.93.
ACGAGAAAGG: the switch fluorescence ratio turned out to be 1.01.
For AAAAAGCGGC, the switch fluorescence ratio was determined as 1.02.
As for GCTTACGTGA, the switch fluorescence ratio was 1.08.
For CTCTTCGCGT, the switch fluorescence ratio was 1.08.
The result for CAGTTGGAAG reads 1.01; that for GGCAGTTAGA, 1.03.
With ATATCCATTG, the switch fluorescence ratio worked out at 0.982.
The result for TCCTTTATAT reads 0.994; that for CGCAAAGTTT, 0.992.
The result for CGTACAAAAC reads 1.26; that for CGCGGCACCT, 1.11.
With TTTGTTCGCC, the switch fluorescence ratio was found to be 1.03.
GAGGTTGGG: the switch fluorescence ratio came out at 1.01.
For TCTGAGGCAC, the switch fluorescence ratio came out at 1.17.
As to AGCTTGACCG, the switch fluorescence ratio stood at 1.06.
In the case of GCAGGATTCG, the switch fluorescence ratio was 0.954.
For TTAGATGGT, the switch fluorescence ratio worked out at 1.17.
For TGTAGGTTCG, the switch fluorescence ratio worked out at 1.01.
In the case of CGAGACTCAC it was 1.07.
In the case of TAAAGAAGAA it was 0.951.
In the case of ATCAAGTAGG, the switch fluorescence ratio amounted to 1.03.
Consider TAATGGGATC, for which the switch fluorescence ratio worked out at 0.995.
